61 molecules from PubChem BioAssay (NCI) can be followed below.

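In this assay, cells in 96-well plates receive the compound at five concentrations for 48 hours. Endpoints are linearly interpolated between the surrounding concentrations. At the GI50, growth is halved. At the TGI there is no net growth.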

For the assay, the system named is NCI-H322M lung. The assay is described as follows: NCI-60 cell line screen, 48 h.
With `O=c1[nH]nc(Cc2ccccc2)n1/N=C/c1ccccc1O`, the TGI is greater than 100 µM. The same measure, in the same setting: the same measure for `CN(C)CC1CCCC/C1=N/OC(=O)c1ccc(Cl)cc1` (stereo not given): greater than 100 µM. In the case of `COc1c(OC[C@H](O)CN2CCOCC2)ccc2c3n(c(=NC(=O)c4cccnc4C)nc12)CCN3`, the GI50 was 0.348 µM and the TGI is greater than 50 µM.

Molecule `CCCCCCc1cc2cc(C(=O)Nc3ccccc3)c(=N)oc2cc1O` came in with a TGI greater than 100 µM.

In turn, `Cc1c(N=Nc2ccc(Cl)cc2)c(-c2ccccc2)n(C2OC(CO)C(O)C(O)C2O)c(=S)c1C#N` (stereo not given) registered a TGI of 29.2 µM.

Regarding `COc1ccc2c(c1)C(=O)c1c-2c(N2CCN(C(=O)CNCCNCCO)CC2)nc2ccccc12`, the GI50 was 13.5 µM and the TGI was 30.3 µM. In the same order, the values of `COc1cc(Cn2c(-c3ccccc3)c(Cl)c3c2-c2oncc2CC3)cc(OC)c1` are greater than 100 µM and greater than 100 µM. The matching figures for `Nc1nc(/C=C\c2ccc([N+](=O)[O-])s2)nc(N2CCCC2)n1`: 3.12 µM and 14.1 µM. In turn, `CN(C)CCCC12CCCCC1=Nc1ccccc12` (stereo not given) yielded a TGI greater than 100 µM. Molecule `C/C(Cc1ccccc1)=N\NC(N)=S` returned a TGI greater than 100 µM.

Molecule `COC(=O)C1=C(O)C(C(=O)OC)[C@]2(O)[C@H](C(=O)OC)[C@H]1C[C@@H](c1ccc(C(F)(F)F)cc1)[C@H]2C(=O)OC` (stereo not given in full) yielded a TGI of 12.8 µM. The molecule `OCC1OC(c2nc(C3=NCCCN3)cs2)C(O)C1O` (stereo not given) showed a TGI greater than 100 µM. As for `NCCNc1c2c(c(NCCN)c3[nH]ccc13)C(=O)c1ccccc1C2=O`, the GI50 was 0.0704 µM and the TGI came to 0.388 µM. `Cc1cc2oc(=N)c(C#N)c(C)c2cc1C` had a TGI greater than 100 µM.

With `CC(C)(C)OC(=O)[C@H]1CCC(=S)N1Cc1ccccc1`, the TGI is greater than 100 µM. `CC1(CCOCc2ccccc2)NC(=O)NC1=O` (stereo not given) registered a TGI greater than 100 µM. In the case of `Cc1ccc(NC(=O)CC2CC2)cc1-c1ccc(C(=O)NCC2CC2)cc1`, the GI50 is greater than 25 µM and the TGI is greater than 25 µM. As to `COc1cc(F)ccc1-c1ncnc(Nc2cccc(CS(C)(=N)=O)c2)n1` (stereo not given), the GI50 was 0.57 µM and the TGI was greater than 100 µM. The matching figures for `CN(C)CC[PH+](c1ccccc1)c1ccccc1.CN(C)CC[PH+](c1ccccc1)c1ccccc1.[Cl-].[Pd+2]`: greater than 100 µM and greater than 100 µM.

`O=C(CCc1n[nH]c(=S)o1)Nc1ccccc1C(F)(F)F` gave a TGI greater than 100 µM. For the molecule `O=C1/C(=C/c2cccc(Cl)c2Cl)N=C(c2ccccc2)N1C1CC1`, the GI50 was 11.4 µM and the TGI is 28 µM. As for `CCOC(=O)Nc1ccc(C)c(NC(=O)OCC)c1`, the TGI was greater than 100 µM. Regarding `CC(=O)c1c(C)n([O-])c2cc(Cl)c(Cl)cc2[n+]1=O`, the TGI is 64 µM. `CCCc1nc(NC#N)nc(C(=O)Nc2ccccc2)c1CC` registered a TGI greater than 100 µM.

`Cc1nn(-c2ccccc2)c2c1C(c1ccc(Cl)cc1)NC(=S)N2` (stereo not given) had a TGI greater than 100 µM. With `CCCN1C(=O)N(CCC)C2C1NC(=S)N2/N=C/C=C/c1ccccc1OC` (stereo not given), the GI50 is 2.97 µM and the TGI was greater than 100 µM. `COC(=O)c1ccccc1/C=C1\Cc2ccc(C)c(C)c2C1=O` gave a TGI greater than 100 µM. Molecule `COc1ccc(C(OCC2OC(n3cc(C)c(=O)[nH]c3=O)CC2n2cc(Cn3cc(Cl)c(=O)[nH]c3=O)nn2)(c2ccccc2)c2ccccc2)cc1` (stereo not given) displayed a TGI greater than 100 µM.

Molecule `CCOC(=O)c1nnc2c(C(=O)OCC)c3ccccc3n2c1N` yielded a TGI of 76.5 µM. In turn, `O=C(Nc1nc(=S)c2c(ncn2CCOC(=O)c2ccccc2)[nH]1)c1ccccc1` had a TGI greater than 100 µM. Regarding `N#CC(C(=O)C(=O)C(C#N)c1ccc(Br)cc1)c1ccc(Br)cc1` (stereo not given), the TGI worked out at 25.9 µM.

Turning to `COc1ccc(Nc2nnc(-c3cc(O)ccc3O)s2)cc1`, the GI50 is greater than 50 µM and the TGI was greater than 50 µM. On to `CCOC(=O)Nc1ccc(-c2nc(-c3cccc(OCCN4CCOCC4)c3)c(-c3ccnc(Br)c3)[nH]2)cc1`, for which the GI50 is 4.08 µM and the TGI is greater than 100 µM.

For the molecule `CC12CC(c3ccccc3O1)C(C(=O)Nc1ccc(Cl)cc1Cl)C(=O)N2` (stereo not given), the TGI came to 72 µM. On the same count and under the same terms, the figure for `N#Cc1c2ccccc2cn1-c1ccc(F)cc1` is greater than 100 µM. Take `C=C(C)[C@@H]1CC[C@]2(C(=O)NC3CCCCC3)CC[C@]3(C)[C@H](CC[C@@H]4[C@@]5(C)CCCNC(C)(C)[C@@H]5CC[C@]43C)[C@@H]12`: the GI50 is 1.74 µM and the TGI amounted to 3.47 µM. Molecule `COc1ccc(NC(=O)/C(Cc2cc(=O)oc3cc(O)ccc23)=N\NC(C)(C)C)c(OC)c1` showed a TGI greater than 100 µM.

On to `O=C(c1ccccc1Br)C(F)(F)F`, for which the TGI was greater than 100 µM.

Molecule `CCOc1ccccc1NC(=O)C(=O)CC(=O)c1sc(Nc2nnc(-c3ccc(Cl)c(Cl)c3)o2)nc1C` registered a TGI greater than 100 µM.

Molecule `O=C1/C(=C/c2ccc3c(c2)OCO3)SC2C=Nc3ccccc3N12` (stereo not given) displayed a TGI greater than 100 µM. For the molecule `CCOC(=O)C(Cc1ccc(CCCC(=O)NCCC(=O)Nc2ccc3nc(C)sc3c2)cc1)C(=O)OCC`, the GI50 was greater than 63.7 µM and the TGI is greater than 100 µM. Molecule `O=C(O)CCC(NC(=O)c1ccc(Nc2nc3cc(C(F)(F)F)ccc3nc2-c2ccccc2)cc1)C(=O)O` (stereo not given) had a TGI greater than 100 µM. `Cc1ccnc2[nH]c3ccccc3c(=O)c12` showed a TGI greater than 100 µM.

`N#Cc1c(-c2ccc(Cl)cc2Cl)nc2[nH][nH]c(=S)n2c1=O` gave a TGI greater than 100 µM.

As to `C=CCn1c(C)nc2ccc(Nc3nc(Nc4ccc5nc(C)n(CC=C)c5c4)c4ccccc4n3)cc21`, the GI50 is 1.71 µM and the TGI is 3.24 µM. With `CC1c2c(Cl)nc3ccccc3c2Oc2c1c(Cl)nc1ccccc21`, the TGI was greater than 100 µM. `NCc1ccccc1-c1c2nc(c(-c3ccccc3CN)c3ccc([nH]3)c(-c3ccccc3CN)c3nc(c(-c4ccccc4CN)c4ccc1[nH]4)C=C3)C=C2` had a TGI of 36.5 µM. On the same count and under the same terms, the figure for `COC1(OC)C(N(C)C)=C(Cl)C(=O)/C1=C/C=O` is greater than 100 µM; for `Cc1ccc(-n2c(N)c(C#N)c3[nH]nc(N)c3c2=O)cc1` it is greater than 100 µM. For `CCn1c2ccccc2c2cc(NC(=O)Nc3ccc([N+](=O)[O-])cc3C)ccc21`, the GI50 is 16.8 µM and the TGI was greater than 100 µM. On to `O=C1Nc2ccccc2/C1=N\[O-].O=C1Nc2ccccc2/C1=N\[O-].[Cu+2]`, for which the GI50 is greater than 100 µM and the TGI is greater than 100 µM. For `O=C1CCCC1CN1CCCC1` (stereo not given), the TGI is greater than 100 µM. Turning to `COc1cccc(C2=NC(C(C)C)CO2)c1` (stereo not given), the TGI is greater than 100 µM. `N#C/C1=C(\N)CCSSSC1` showed a TGI greater than 100 µM.

On to `COc1ccc2[nH]cc(C3(c4c[nH]c5ccc(OC)cc45)C(=O)Nc4ccc(F)cc43)c2c1`, for which the GI50 was 2.75 µM and the TGI amounted to 15.4 µM. The matching figures for `O=C(Nc1ccncc1)C(=O)c1cn(S(=O)(=O)c2ccc(F)cc2)c2ccccc12`: 48.1 µM and greater than 100 µM. Molecule `CCC(C)COC(=O)c1ccc(N=Cc2ccc(C=Nc3ccc(C(=O)OCC(C)CC)cc3)cc2)cc1` (stereo not given) gave a TGI greater than 100 µM. Still for that read-out and setting: the same measure for `Cc1ccc(NC(=O)CCc2cc(C(C)(C)C)nc(=S)[nH]2)cc1C`: greater than 100 µM; for `COc1cc(C2c3cc4c(cc3OC3(OC)COC(=O)C23)OCO4)cc(OC)c1OC(C)=O` (stereo not given): greater than 100 µM; for `COc1ccc(P2(=S)OC(C)(C)C(C)(C)O2)cc1`: greater than 100 µM.

As to `CC1(C)N=C(N)N=C(N)N1c1ccc(CCc2ccccc2)cc1`, the TGI was greater than 100 µM.
